In all, about 39,000 compounds went through this assay and about 220 (0.56%) showed activity. The list shows a part of the results.
What follows are compounds tested on Escherichia coli K-12 BW25113 (assay: relative growth (OD600 normalised to plate interquartile mean) (fraction); higher = less growth inhibition, active = 0.2 or less). Details: 50 µM; LB; incubation time: overnight (16-24 h).
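Further: static incubation at 37 °C against the wild-type strain, values averaged over two biological replicates.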

Row | SMILES | relative growth
1 | CC(C)NC(=O)Nc1ccc2c(c1)CC(=O)N([C@H](C)CO)C[C@@H](C)[C@H](CN(C)S(=O)(=O)c1ccc(F)cc1)O2 | inactive: 0.979
2 | Cc1ccc(S(=O)(=O)N(C)C[C@@H]2OCCCC[C@H](C)Oc3ccc(NC(=O)CCC(F)(F)F)cc3C(=O)N([C@@H](C)CO)C[C@@H]2C)cc1 | inactive: 0.991
3 | Cc1ccccc1NC(=O)Nc1ccc(CC(=O)N(C)[C@@H](CC(C)C)C(=O)NCC[C@H](NC(=O)[C@@H]2CCCN2S(=O)(=O)c2cc(Cl)cc(Cl)c2)C(=O)O)cc1 | inactive: 0.988
4 | COc1ccc(S(=O)(=O)Nc2ccc3c(c2)CC(=O)N([C@@H](C)CO)C[C@H](C)[C@H](CN(C)C(=O)Nc2c(C)noc2C)O3)cc1 | inactive: 1.02
5 | COc1ccc2c3c(n(c2c1)C)[C@H](CO)N(C[C@]13CN(C1)C(=O)C)C(=O)CN1CCOCC1 | inactive: 0.994
6 | CNC[C@H]1OCCCC[C@@H](C)Oc2ccc(NC(=O)Nc3ccc(C(F)(F)F)cc3)cc2C(=O)N([C@H](C)CO)C[C@H]1C | inactive: 0.947
7 | NC[C@](O)(c1cccs1)C1CC1 | inactive: 1.01
8 | CO[C@H](CN(C)S(=O)(=O)c1cccc(Cl)c1)[C@@H](C)CN([C@H](C)CO)S(=O)(=O)c1ccc(Cl)cc1 | inactive: 1.03
9 | C[C@@H]1CN([C@@H](C)CO)C(=O)c2cc(-c3cccc(C(=O)N(C)C)c3)cnc2O[C@H]1CN(C)C(=O)Cc1ccccn1 | inactive: 0.986
10 | C[C@H]1CN([C@@H](C)CO)C(=O)CCCn2nncc2CO[C@H]1CN(C)S(=O)(=O)c1ccc(Oc2ccccc2)nc1 | inactive: 1.01
11 | CCC(=O)C12CC3CC(CC(C3)C1)C2 | inactive: 0.981
12 | C[C@@H]1CN([C@H](C)CO)C(=O)c2cc(NC(=O)NC3CCCCC3)ccc2O[C@@H](C)CCCCO[C@@H]1CN(C)Cc1ccc(C(=O)O)cc1 | inactive: 1.01
13 | Cc1noc(C)c1S(=O)(=O)Nc1ccc2c(c1)C(=O)N([C@@H](C)CO)C[C@H](C)[C@@H](CN(C)Cc1ccccc1)OCCCC[C@H](C)O2 | inactive: 0.983
14 | C[C@H]1CN([C@@H](C)CO)C(=O)Cc2cc(NS(C)(=O)=O)ccc2O[C@H]1CN(C)Cc1ccc(C(F)(F)F)cc1 | inactive: 0.971
15 | C[C@H]1CN([C@@H](C)CO)C(=O)c2cccc(NC(=O)Nc3ccc(C(F)(F)F)cc3)c2O[C@@H]1CN(C)Cc1ccc(C(=O)Nc2ccccc2N)cc1 | inactive: 0.984
16 | Cc1ccc(S(=O)(=O)Nc2ccc3c(c2)C(=O)N([C@H](C)CO)C[C@H](C)[C@H](CN(C)C(=O)Nc2cccc4ccccc24)OCCCC[C@H](C)O3)cc1 | inactive: 0.988
17 | COc1ccc2c3c(n(c2c1)C)[C@@H](CO)N(Cc1cc(cc(c1)OC)OC)C[C@]13CCN(CC1)C(=O)Nc1cccc(c1)F | inactive: 1.03
18 | C[C@H](CO)N1C[C@H](C)[C@H](CN(C)C(=O)Nc2cccc(C(F)(F)F)c2)OCc2ccccc2-c2ccccc2C1=O | inactive: 0.984
19 | N[C@H]1CCOC2(CCCC2)C1 | inactive: 0.906

Row | SMILES | relative growth
20 | C=C1CCC2C(C)(CO)C(O)CCC2(C)C1CC=C1C(=O)OCC1O (configuration not stated) | inactive: 0.963
21 | C[C@H](CO)N1C[C@H](C)[C@H](CN(C)S(C)(=O)=O)Oc2ncc(-c3cccc(C(F)(F)F)c3)cc2C1=O | inactive: 1.02
22 | O=c1c(O)cc([C@H]2Oc3cc(O)cc(O)c3C[C@H]2O)c2cc([C@H]3Oc4cc(O)cc(O)c4C[C@H]3O)cc(O)c(O)c1-2 | inactive: 0.968
23 | C[C@@H]1CCCCO[C@@H](CN(C)Cc2ccc(Cl)c(Cl)c2)[C@@H](C)CN([C@H](C)CO)C(=O)c2cc(NS(=O)(=O)c3cccs3)ccc2O1 | inactive: 1.02
24 | CC/C=C\C/C=C\C/C=C\CCCCCCCC(=O)O | inactive: 0.995
25 | Cc1ccc(S(=O)(=O)Nc2ccc3c(c2)CC(=O)N([C@H](C)CO)C[C@H](C)[C@H](CN(C)Cc2ccc(-c4ccccc4)cc2)O3)cc1 | inactive: 1.02
26 | CC(C)C(N)C(=O)OCCOCn1cnc2c(=O)[nH]c(N)nc21.Cl (configuration not stated) | inactive: 0.942
27 | COc1ccc(NC(=O)N(C)C[C@H]2Oc3ccc(NC(=O)Nc4ccc(C(F)(F)F)cc4)cc3CC(=O)N([C@H](C)CO)C[C@@H]2C)cc1 | inactive: 1.01
28 | C[C@@H]1CCCCO[C@@H](CN(C)S(=O)(=O)c2ccc(Cl)cc2)[C@H](C)CN([C@@H](C)CO)C(=O)c2cc(NC(=O)C3CCCCC3)ccc2O1 | inactive: 0.809
29 | COc1cccc(S(=O)(=O)N[C@@H]2CC[C@H](CCn3cc(-c4ccccc4OC)nn3)O[C@@H]2CO)c1 | inactive: 1.02
30 | C[C@H](CO)N1C[C@H](C)[C@@H](CN(C)S(=O)(=O)c2cccs2)Oc2ccc(NS(=O)(=O)c3ccc(F)cc3)cc2C1=O | inactive: 0.979
31 | C[C@H](CO)N1C[C@H](C)[C@@H](CN(C)Cc2ccc(Cl)c(Cl)c2)Oc2c(NS(=O)(=O)c3cccs3)cccc2C1=O | inactive: 0.905
32 | C[C@@H]1CN([C@@H](C)CO)C(=O)Cc2cc(NC(=O)Nc3ccc(C(F)(F)F)cc3)ccc2O[C@@H]1CN(C)Cc1ccc2c(c1)OCO2 | inactive: 1.01
33 | C[C@@H]1CN([C@H](C)CO)C(=O)c2cc(NC(=O)C3CCCCC3)ccc2O[C@@H](C)CCCCO[C@H]1CN(C)C(=O)Nc1ccc2c(c1)OCO2 | inactive: 1
34 | CC(=O)OC1CC(OC(C)=O)C2(C)C(CC(OC(C)=O)C3(C)C2CCC2(C)C(c4ccoc4)OC(=O)C4OC423)C1(C)C (configuration not stated) | inactive: 1.15
35 | C[C@@H]1CN([C@@H](C)CO)C(=O)CCCn2nncc2CO[C@H]1CN(C)S(=O)(=O)c1ccc(-c2ccccc2)cc1 | inactive: 1.01
36 | O=C(C[C@H]1C[C@H]2c3cc(NC(=O)Cc4ccncc4)ccc3O[C@H]2[C@@H](CO)O1)NCCN1CCCCC1 | inactive: 0.99
37 | C[C@@H]1CN([C@@H](C)CO)C(=O)Cc2cc(NC(=O)Nc3ccc(C(F)(F)F)cc3)ccc2O[C@@H]1CN(C)C(=O)Nc1ccc2c(c1)OCO2 | inactive: 1.03
38 | Cc1ccc(S(=O)(=O)Nc2ccc3c(c2)C(=O)N([C@@H](C)CO)C[C@@H](C)[C@@H](CN(C)C(=O)Nc2cccc4ccccc24)OCCCC[C@H](C)O3)cc1 | inactive: 1.02

Row | SMILES | relative growth
39 | COc1ccc(C#Cc2ccc3c(c2)O[C@H](CN(C)C(=O)c2ccccn2)[C@H](C)CN([C@@H](C)CO)S3(=O)=O)cc1 | inactive: 1
40 | CC(C)CS(=O)(=O)N1C[C@H]2C[C@H](C(=O)N3CCOCC3)[C@@H](C1)O2 | inactive: 0.992
41 | C[C@H](CO)N1C[C@H](C)[C@H](CN(C)Cc2ccncc2)Oc2ccc(NC(=O)Nc3cccc4ccccc34)cc2CC1=O | inactive: 1.01
42 | C[C@@H]1CCCCO[C@@H](CN(C)C(=O)c2ccccc2)[C@H](C)CN([C@H](C)CO)C(=O)c2cc(NS(=O)(=O)c3ccc(F)cc3)ccc2O1 | inactive: 1
43 | C[C@@H]1CN([C@H](C)CO)C(=O)c2cc(NC(=O)CCCN(C)C)ccc2O[C@@H]1CN(C)S(=O)(=O)c1ccc(F)cc1 | inactive: 0.981
44 | CNC(=O)c1cc(S(=O)(=O)N(C)C[C@@H]2Oc3ccc(NC(=O)Nc4ccc(F)cc4)cc3CC(=O)N([C@@H](C)CO)C[C@@H]2C)cs1 | inactive: 0.943
45 | C[C@H](CO)N1C[C@H](C)[C@H](CN(C)C(=O)Nc2cccc(F)c2)OCCCC[C@H](C)Oc2ccc(NC(=O)C3CCCCC3)cc2C1=O | inactive: 1
46 | Cc1noc(C)c1NC(=O)Nc1ccc2c(c1)C(=O)N([C@H](C)CO)C[C@@H](C)[C@H](CN(C)Cc1ccc(Cl)c(Cl)c1)O2 | inactive: 1
47 | CN1CCN(C(=O)C[C@H]2C[C@H]3c4cc(NS(=O)(=O)c5ccc(F)cc5)ccc4O[C@H]3[C@@H](CO)O2)CC1 | inactive: 0.939
48 | Cc1noc(C)c1NC(=O)N[C@@H]1C=C[C@H](CC(=O)N2CCN(C)CC2)O[C@@H]1CO | inactive: 1.01
49 | Cc1ccc(S(=O)(=O)N(C)C[C@@H]2Oc3ccc(NC(=O)NC(C)C)cc3CC(=O)N([C@@H](C)CO)C[C@@H]2C)cc1 | inactive: 1.03
50 | CCCCCCc1nc(-c2ccc(-c3ccc(Cl)c(Cl)c3)o2)cc2c1[Si](C(C)C)(C(C)C)OC2 | inactive: 1.07
51 | C[C@H](CO)N1C[C@H](C)[C@@H](CN(C)C(=O)Nc2cccc3ccccc23)OCCCC[C@H](C)Oc2ccc(NS(=O)(=O)c3ccc(Cl)cc3)cc2C1=O | inactive: 1.03
52 | CC(C)NC(=O)N(C)C[C@H]1Oc2ccc(NS(=O)(=O)c3cn(C)cn3)cc2CC(=O)N([C@@H](C)CO)C[C@@H]1C | inactive: 1.01
53 | COc1ccc(S(=O)(=O)Nc2ccc3c(c2)C(=O)N([C@H](C)CO)C[C@H](C)[C@@H](CN(C)C(=O)Nc2ccc(F)cc2)OCCCC[C@@H](C)O3)cc1 | inactive: 1.05
54 | C[C@@H]1CN([C@H](C)CO)C(=O)c2cc(NS(C)(=O)=O)ccc2O[C@@H]1CN(C)C(=O)Nc1ccc(F)cc1 | inactive: 1
55 | Cc1cc(C)c2c(c1)[C@@H](N(Cc1cc(C(F)(F)F)cc(C(F)(F)F)c1)c1nnn(C)n1)CCCN2C[C@H]1CC[C@H](C(=O)O)CC1 | inactive: 0.913
56 | Cc1noc(C)c1S(=O)(=O)Nc1ccc2c(c1)C(=O)N([C@H](C)CO)C[C@@H](C)[C@H](CN(C)Cc1ccc(C(F)(F)F)cc1)OCCCC[C@@H](C)O2 | inactive: 0.988
57 | CN1CCN(C(=O)C[C@@H]2CC[C@@H]3[C@H](COC[C@H](O)CN3C(=O)C3CC3)O2)CC1 | inactive: 0.889

Source: the supplement of paper PMC9446081
